Test results taken from PubChem BioAssay AID1963576 (National Center for Advancing Translational Sciences (NCATS), 2024).
The whole screen tested about 46,000 compounds, of which about 60 (0.1%) were called active. Not shown: some 3% with an inconclusive outcome. Calls follow the shape of the dose curve; as a rule, active = well fitted inhibition curve with a large enough effect; inconclusive = small, poorly fitted or top-dose-only effect; inactive = no such curve, though single readings can be large or run the other way. The list shows a part of the results.

Assay: Primary qHTS assay for Inhibitors of ovarian cancer metastasis using an organotypic tumor microenvironment (TME) model. Also: nearly all actives have a fitted effect of over 65% in size.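 As to activity change, negative = inhibition: plate controls were DMSO wells for no effect and tomatine positive control wells for full effect.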
Conditions: SKOV3ip1-GFP adhesion/invasion on 3D omental model, fluorescence; series mostly up to 45.8 µM; activity change, negative = inhibition: at the top concentration
Method in brief: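 A 3D layer of primary human omental fibroblasts, mesothelial cells, fibronectin and collagen I, grown 48 hr, received SKOV3ip1-GFP cells in serum-free medium plus compounds at 0.36-46 umol/L. After 2 hr RT and 16 hr 37 C, fixed adherent GFP cells were counted; normalized to DMSO and tomatine.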

Row | Compound | activity change, negative = inhibition | outcome
1 | O=c1c2ccccc2nc(/C=C\c2ccc(F)cc2)n1-c1ccccc1F | inactive: 11.1% | 
2 | c1ccc(CCCN2CCN(CCOC(c3ccccc3)c3ccccc3)CC2)cc1 | inactive: 8.09% | 
3 | CC(=O)NS(=O)(=O)c1ccc(NC(=O)c2cccn(Cc3ccc(Cl)cc3)c2=O)cc1 | inactive: 8% | 
4 | COc1ccc(OCC(=O)N2CCN(Cc3cc(=O)n4nc(-c5ccccc5C)sc4n3)CC2)cc1 | inactive: 2.03% | 
5 | O=C(CCc1nc(C2=CCN(Cc3cccc(Cl)c3)CC2)no1)Nc1ccccc1F | inactive: -2.98% | 
6 | O=C(Nc1ccon1)c1cccn(Cc2ccccc2)c1=O | inactive: -8.38% | 
7 | COc1ccc(/C=C/c2nc3ccccc3c(=O)n2-c2ccc(C)cc2)cc1O |  | inactive
8 | Cc1ccc(-c2nc(CN3C(=O)CN=C(c4ccccc4)c4cc(Cl)ccc43)c(C)o2)cc1 | inactive: -22% | 
9 | Cc1cc(NC(=O)c2cccn(Cc3cccc(Cl)c3)c2=O)no1 | inactive: -4.3% | 
10 | Cc1cccc(-n2c(/C=C/c3cn(C)c4ccccc34)nc3ccccc3c2=O)c1 | inactive: 1.02% | 
11 | O=C1CC(c2ccc(Br)cc2)c2c(c3ccccc3oc2=O)O1 (stereo unspecified) | inactive: 2.05% | 
12 | O=c1[nH]c2ccccc2c(=O)n1-c1ccc(Cl)c(Cl)c1 | inactive: -4.34% | 
13 | Cc1cccc(NC(=O)Cn2cc(C(=O)c3ccccc3)c3ccccc32)c1C | inactive: -3.37% | 
14 | Cc1oc(-c2ccc(Cl)cc2)nc1CN1C(=O)CN=C(c2ccccc2)c2ccccc21 | inactive: 0.984% | 
15 | CN1[C@H]2CC(O)C[C@H]1[C@H]1O[C@H]12 (stereo partly specified) | inactive: -25% | 
16 | C[C@H]1CCCC=CC2C[C@H](O)C[C@@H]2[C@H](O)C=CC(=O)O1 (stereo partly specified) | inactive: 5.91% | 
17 | O=C(Nc1ccon1)c1cccn(Cc2cccc(Cl)c2)c1=O |  | inactive
18 | O=C1CC(c2c(F)cccc2Cl)c2c(c3ccccc3oc2=O)O1 (stereo unspecified) | inactive: 8.12% | 

Row | Compound | activity change, negative = inhibition | outcome
19 | O=c1[nH]c2ccc(Cl)cc2c(N[C@@H]2CN3CCC2CC3)c1-c1nc2ccccc2[nH]1 | inactive: 39.4% | 
20 | Cc1nnc(NC(=O)c2cccn(Cc3ccccc3F)c2=O)s1 |  | inactive
21 | O=C(COc1ccc(Cl)cc1)Nc1ccc(Cl)cc1C(=O)c1ccccc1 | inactive: 2.63% | 
22 | Cc1c(C(c2ccc(F)cc2)c2c(O)c3ccccc3oc2=O)c(=O)n(-c2ccccc2)n1C (stereo unspecified) | inactive: -8.12% | 
23 | CCCSc1nc2ccccc2c(=O)n1-c1ccccc1OC |  | inactive
24 | Cc1cc(C)cc(-n2c(=O)[nH]c3ccccc3c2=O)c1 |  | inactive
25 | CC(=O)N1CC(=O)Nc2ccc(F)cc2C1c1ccccc1 (stereo unspecified) | inactive: -6.47% | 
26 | CCC12CN3CC(CC)(CN(C1)C3c1ccccn1)C2=O (stereo unspecified) | inactive: -7.61% | 
27 | CCN1C[C@]2(OC(=O)c3ccccc3NC(C)=O)CC[C@H](OC)[C@@]34[C@H]5CC6[C@@H](OC)C[C@](O)(C(C[C@@H]23)[C@@H]14)[C@@]5(O)[C@@H]6OC | inactive: -1.23% | 
28 | CC(C)N[C@@H]1CCn2c(=O)[nH]c3cccc(c32)[C@@H]1O | inactive: 4.96% | 
29 | Cc1nnc(NC(=O)c2cccn(Cc3ccc(Cl)cc3)c2=O)s1 | inactive: -7.77% | 
30 | Cc1ccc(-n2c(/C=C/c3ccc(Br)s3)nc3ccccc3c2=O)cc1C |  | inactive
31 | COc1ccc(OC)c(NC(=O)Cn2cc(C(=O)c3ccccc3F)c3ccccc32)c1 |  | inactive
32 | c1ccc2c(CN3CCNCC3)cccc2c1 | inactive: -3.96% | 
33 | C#CCN(C)[C@H](C)Cc1ccccc1 | inactive: -18.4% | 
34 | Cc1ccc(NC(=O)N(Cc2ccc3c(c2)OCO3)C2CCN(Cc3ccccc3)CC2)cc1F | inactive: -12.9% | 
35 | COc1ccc(NC(=O)CN2C(=O)C(C)N=C(c3ccccc3F)c3cc(Cl)ccc32)c(OC)c1 (stereo unspecified) | inactive: -0.811% | 
36 | Cc1cc(C)cc(-n2c(/C=C/c3cccc(F)c3)nc3ccccc3c2=O)c1 | inactive: -8.54% | 
